# The list shows a part of the results.
# B1: Jacalin (Artocarpus integrifolia) (protein)
# chain: MAYSSLLSLSVLALLFSISSADTRKWFLANGINQNPIGIIEAAVGVSEDLLNLNGMEAKNDEQSGISQTVIVGPWGAKVSTSSNGKAFDDGAFTGIREINLSYNKETAIGDFQVVYDLNGSPYVGQNHKSFITGFTPVKISLDFPSEYIMEVSGYTGNVSGYVVVRSLTFKTNKKTYGPYGVTSGTPFNLPIENGLIVGFKGSIGYWLDYFSMYLSL
# Assays:
# Test in all cases: glycan array binding signal (z-score within array); higher = stronger binding
# Conditions in all cases: glycan notation: IUPAC condensed, linker removed
# [1] = target: Man(a1-2)Man(a1-6)[Man(a1-3)]Man(a1-6)[Man(a1-2)Man(a1-2)Man(a1-3)]Man(b1-4)GlcNAc(b1-4)GlcNAc
# How it was run: (§1)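 The Consortium for Functional Glycomics database supplied 3228 glycan arrays, of which those lacking an available protein sequence were dropped. The binding signal, a within-array Z-score, was averaged across arrays of the same protein sequence and across linkers. Negative scores can be read as non-binding.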
# Man(a1-3)[Man(a1-6)]Man = target: Man(a1-3)[Man(a1-6)]Man
# How it was run: as §1
# [2] = target: Man(a1-3)[Man(a1-6)]Man(a1-6)[Man(a1-2)Man(a1-3)]Man(b1-4)GlcNAc(b1-4)GlcNAc
# How it was run: as §1
# [3] = target: Man(a1-3)[Man(a1-6)]Man(a1-6)[Man(a1-3)]Man
# How it was run: as §1
# [4] = target: Man(a1-3)[Man(a1-6)]Man(a1-6)[Man(a1-3)]Man(b1-4)GlcNAc(b1-4)GlcNAc
# How it was run: as §1
# [5] = target: Man(a1-3)[Man(a1-6)]Man(b1-4)GlcNAc(b1-4)GlcNAc
# How it was run: as §1
# [6] = target: Man(a1-3)[Man(a1-6)]Man(b1-4)GlcNAc(b1-4)[Fuc(a1-6)]GlcNAc
# How it was run: as §1
# Man(a1-6)Man = target: Man(a1-6)Man
# How it was run: as §1
# Man(b1-4)GlcNAc = target: Man(b1-4)GlcNAc
# How it was run: as §1
# MurNAc(b1-4)GlcNAc = target: MurNAc(b1-4)GlcNAc
# How it was run: as §1
# Neu5Ac(a2-3)Gal = target: Neu5Ac(a2-3)Gal
# How it was run: as §1
# [7] = target: Neu5Ac(a2-3)Gal(b1-3)GalNAc
# How it was run: as §1
# [8] = target: Neu5Ac(a2-3)Gal(b1-3)GalNAc(b1-3)Gal(a1-4)Gal(b1-4)Glc
# How it was run: as §1
# [9] = target: Neu5Ac(a2-3)Gal(b1-3)GalNAc(b1-3)Gal(b1-4)GlcNAc
# How it was run: as §1
# [10] = target: Neu5Ac(a2-3)Gal(b1-3)GalNAc(b1-4)[Neu5Ac(a2-3)]Gal(b1-4)Glc
# How it was run: as §1
# [11] = target: Neu5Ac(a2-3)Gal(b1-3)GalNAc(b1-4)[Neu5Ac(a2-8)Neu5Ac(a2-3)]Gal(b1-4)Glc
# How it was run: as §1
# [12] = target: Neu5Ac(a2-3)Gal(b1-3)GalNAc6S
# How it was run: as §1
# [13] = target: Neu5Ac(a2-3)Gal(b1-3)GlcNAc
# How it was run: as §1
# [14] = target: Neu5Ac(a2-3)Gal(b1-3)GlcNAc(b1-2)Man
# How it was run: as §1
# [15] = target: Neu5Ac(a2-3)Gal(b1-3)GlcNAc(b1-2)Man(a1-3)[GlcNAc(b1-4)][Neu5Ac(a2-3)Gal(b1-3)GlcNAc(b1-2)Man(a1-6)]Man(b1-4)GlcNAc(b1-4)GlcNAc
# How it was run: as §1
# [16] = target: Neu5Ac(a2-3)Gal(b1-3)GlcNAc(b1-2)Man(a1-3)[Neu5Ac(a2-3)Gal(b1-3)GlcNAc(b1-2)Man(a1-6)]Man(b1-4)GlcNAc(b1-4)GlcNAc
# How it was run: as §1
# [17] = target: Neu5Ac(a2-3)Gal(b1-3)GlcNAc(b1-3)Gal(b1-3)GlcNAc
# How it was run: as §1
# [18] = target: Neu5Ac(a2-3)Gal(b1-3)GlcNAc(b1-3)Gal(b1-4)GlcNAc
# How it was run: as §1
# [19] = target: Neu5Ac(a2-3)Gal(b1-3)GlcNAc(b1-3)GalNAc
# How it was run: as §1
# [20] = target: Neu5Ac(a2-3)Gal(b1-3)GlcNAc(b1-4)Gal(b1-4)Glc
# How it was run: as §1
# [21] = target: Neu5Ac(a2-3)Gal(b1-3)GlcNAc(b1-6)GalNAc
# How it was run: as §1
# [22] = target: Neu5Ac(a2-3)Gal(b1-3)GlcNAc6S
# How it was run: as §1
# [23] = target: Neu5Ac(a2-3)Gal(b1-3)[Fuc(a1-4)]GlcNAc
# How it was run: as §1
# [24] = target: Neu5Ac(a2-3)Gal(b1-3)[Fuc(a1-4)]GlcNAc(b1-3)Gal(b1-3)[Fuc(a1-4)]GlcNAc
# How it was run: as §1
# [25] = target: Neu5Ac(a2-3)Gal(b1-3)[Fuc(a1-4)]GlcNAc(b1-3)Gal(b1-4)[Fuc(a1-3)]GlcNAc
# How it was run: as §1
# [26] = target: Neu5Ac(a2-3)Gal(b1-3)[GlcNAc(b1-6)]GalNAc
# How it was run: as §1
# [27] = target: Neu5Ac(a2-3)Gal(b1-3)[Neu5Ac(a2-3)Gal(b1-4)]GlcNAc
# How it was run: as §1
# [28] = target: Neu5Ac(a2-3)Gal(b1-3)[Neu5Ac(a2-6)]GalNAc
# How it was run: as §1
# [29] = target: Neu5Ac(a2-3)Gal(b1-3)[Neu5Ac(a2-6)]GlcNAc(b1-3)[Fuc(a1-3)[Gal(b1-4)]GlcNAc(b1-6)]Gal(b1-4)Glc
# How it was run: as §1
# [30] = target: Neu5Ac(a2-3)Gal(b1-3)]Neu5Ac(a2-3)Gal(b1-4)]GlcNAc
# How it was run: as §1
# Neu5Ac(a2-3)Gal(b1-4)Glc = target: Neu5Ac(a2-3)Gal(b1-4)Glc
# How it was run: as §1
# [31] = target: Neu5Ac(a2-3)Gal(b1-4)GlcNAc
# How it was run: as §1
# [32] = target: Neu5Ac(a2-3)Gal(b1-4)GlcNAc(b1-2)Man
# How it was run: as §1
# [33] = target: Neu5Ac(a2-3)Gal(b1-4)GlcNAc(b1-2)Man(a1-3)[GlcNAc(b1-4)][Neu5Ac(a2-3)Gal(b1-4)GlcNAc(b1-2)Man(a1-6)]Man(b1-4)GlcNAc(b1-4)GlcNAc
# How it was run: as §1
# [34] = target: Neu5Ac(a2-3)Gal(b1-4)GlcNAc(b1-2)Man(a1-3)[Neu5Ac(a2-3)Gal(b1-4)GlcNAc(b1-2)Man(a1-6)]Man(b1-4)GlcNAc(b1-4)GlcNAc
# How it was run: as §1
# [35] = target: Neu5Ac(a2-3)Gal(b1-4)GlcNAc(b1-2)Man(a1-3)[Neu5Ac(a2-3)Gal(b1-4)GlcNAc(b1-2)Man(a1-6)]Man(b1-4)GlcNAc(b1-4)[Fuc(a1-6)]GlcNAc
# How it was run: as §1
# [36] = target: Neu5Ac(a2-3)Gal(b1-4)GlcNAc(b1-2)Man(a1-3)[Neu5Ac(a2-6)Gal(b1-4)GlcNAc(b1-2)Man(a1-6)]Man(b1-4)GlcNAc(b1-4)GlcNAc
# How it was run: as §1
# [37] = target: Neu5Ac(a2-3)Gal(b1-4)GlcNAc(b1-2)[Neu5Ac(a2-3)Gal(b1-4)GlcNAc(b1-4)]Man(a1-3)[GlcNAc(b1-4)][Neu5Ac(a2-3)Gal(b1-4)GlcNAc(b1-2)[Neu5Ac(a2-3)Gal(b1-4)GlcNAc(b1-6)]Man(a1-6)]Man(b1-4)GlcNAc(b1-4)GlcNAc
# How it was run: as §1
# [38] = target: Neu5Ac(a2-3)Gal(b1-4)GlcNAc(b1-2)[Neu5Ac(a2-3)Gal(b1-4)GlcNAc(b1-4)]Man(a1-3)[GlcNAc(b1-4)][Neu5Ac(a2-3)Gal(b1-4)GlcNAc(b1-4)Man(a1-6)]Man(b1-4)GlcNAc(b1-4)GlcNAc
# How it was run: as §1
# [39] = target: Neu5Ac(a2-3)Gal(b1-4)GlcNAc(b1-2)[Neu5Ac(a2-3)Gal(b1-4)GlcNAc(b1-6)]Man(a1-6)[Neu5Ac(a2-3)Gal(b1-4)GlcNAc(b1-2)Man(a1-3)]Man(b1-4)GlcNAc(b1-4)GlcNAc
# How it was run: as §1
binder,measurement,setting,value
B1,glycan array binding signal (z-score),[1],-0.296
same,glycan array binding signal (z-score),Man(a1-3)[Man(a1-6)]Man,-0.263
same,glycan array binding signal (z-score),[2],-0.019
same,glycan array binding signal (z-score),[3],-0.207
same,glycan array binding signal (z-score),[4],-0.117
same,glycan array binding signal (z-score),[5],0.035
same,glycan array binding signal (z-score),[6],0.173
same,glycan array binding signal (z-score),Man(a1-6)Man,-0.21
same,glycan array binding signal (z-score),Man(b1-4)GlcNAc,-0.266
same,glycan array binding signal (z-score),MurNAc(b1-4)GlcNAc,-0.25
same,glycan array binding signal (z-score),Neu5Ac(a2-3)Gal,-0.253
same,glycan array binding signal (z-score),[7],1.43
same,glycan array binding signal (z-score),[8],-0.183
same,glycan array binding signal (z-score),[9],-0.336
same,glycan array binding signal (z-score),[10],-0.262
same,glycan array binding signal (z-score),[11],-0.262
same,glycan array binding signal (z-score),[12],-0.267
same,glycan array binding signal (z-score),[13],-0.259
same,glycan array binding signal (z-score),[14],-0.194
same,glycan array binding signal (z-score),[15],-0.268
same,glycan array binding signal (z-score),[16],-0.209
same,glycan array binding signal (z-score),[17],-0.279
same,glycan array binding signal (z-score),[18],-0.274
same,glycan array binding signal (z-score),[19],1.07
same,glycan array binding signal (z-score),[20],-0.223
same,glycan array binding signal (z-score),[21],-0.282
same,glycan array binding signal (z-score),[22],-0.214
same,glycan array binding signal (z-score),[23],-0.286
same,glycan array binding signal (z-score),[24],-0.221
same,glycan array binding signal (z-score),[25],-0.255
same,glycan array binding signal (z-score),[26],-0.27
same,glycan array binding signal (z-score),[27],-0.353
same,glycan array binding signal (z-score),[28],-0.101
same,glycan array binding signal (z-score),[29],-0.275
same,glycan array binding signal (z-score),[30],-0.263
same,glycan array binding signal (z-score),Neu5Ac(a2-3)Gal(b1-4)Glc,-0.236
same,glycan array binding signal (z-score),[31],-0.255
same,glycan array binding signal (z-score),[32],-0.183
same,glycan array binding signal (z-score),[33],-0.281
same,glycan array binding signal (z-score),[34],-0.26
same,glycan array binding signal (z-score),[35],0.007
same,glycan array binding signal (z-score),[36],-0.249
same,glycan array binding signal (z-score),[37],-0.264
same,glycan array binding signal (z-score),[38],-0.283
same,glycan array binding signal (z-score),[39],-0.209
